# From PubChem BioAssay AID1347073 (National Center for Advancing Translational Sciences (NCATS), 2019)
# Hit rate of the full screen: of about 45,000 compounds, about 200 (0.44%) were called active. Not shown: some 7% with an inconclusive outcome. Calls follow the shape of the dose curve; as a rule, active = well fitted activation curve with a large enough effect; inconclusive = small, poorly fitted or top-dose-only effect; inactive = no such curve, though single readings can be large or run the other way. The list shows a part of the results.
# Experiment: qHTS of TDP-43 Inhibitors: NCGC Sytravon Library Screen; also: 0% is about no effect; nearly all actives have a fitted effect of over 55% in size
# Conditions: yeast TDP-43 toxicity rescue, BacTiter-Glo growth, 24 h; series mostly up to 46.1 µM; growth rescue (activation): at the top concentration
# Method in brief: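 TDP-43-expressing yeast, pregrown in raffinose, seeded at OD600 0.02 in galactose medium with compound for 24 hr at 30 deg C. Growth read by BacTiter-Glo luminescence, so rescue of toxicity appears as activation.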
row,Compound,growth rescue (activation)
1,CCOc1cc(/C=N/NC(=O)CCn2nnc3ccccc32)ccc1O,inactive: -13.5%
2,Cc1ccc(NC(=O)CSc2nc(=O)cc(N)n2CCc2ccccc2)cc1,inactive: 0.803%
3,CCCCCCc1cc2cc(C(=O)NC)c(=N)oc2cc1O,inactive: 9.62%
4,COc1cc2[nH]c(C(=O)N3CC(C)OC(C)C3)cc2c(OC)c1OC (centres undefined),inactive: -16.7%
5,CC(C)(C)c1cc(NC(=O)c2ccco2)n(-c2ccccc2)n1,inactive: -8.2%
6,Cc1cc(C)c(C(=O)NNC(=O)c2cccnc2)c(C)c1,inactive: 8.23%
7,CCCCC(=NCCc1c(C)[nH]c2ccccc12)C1=C(O)CC(c2ccccc2)CC1=O (centres undefined),inactive: -0.745%
8,Cc1nnc(NCc2ccco2)c2ccccc12,inactive: -19.2%
9,CC(C)NC(=O)COC(=O)c1cncc(Br)c1,inactive: -5.46%
10,CNC(=O)c1cccc(NC(=O)c2ccccc2OCc2ccccc2)c1,inactive: 23.2%
11,CCC(C)C1=CC(=Nc2c(C)n(C)n(-c3ccccc3)c2=O)C=C(C(C)CC)C1=O (centres undefined),inactive: 1.22%
12,CC1CCN(C2=C(NS(=O)(=O)c3ccccc3)C(=O)c3ccccc3C2=O)CC1,inactive: 6.75%
13,CN(c1ccc(OCC(=O)OCC(=O)Nc2cccc([N+](=O)[O-])c2)cc1)S(=O)(=O)c1ccc(F)cc1,inactive: 9.11%
14,COCCNC(=O)C(c1ccc(O)cc1)N(C(=O)CCC(=O)Nc1nccs1)c1ccc(C)cc1 (centres undefined),inactive: 7.51%
15,COc1ccc(C(CNC(=O)c2ccc(S(=O)(=O)N(C)C)cc2)N(C)C)cc1 (centres undefined),inactive: -1.57%
16,Cn1c(=O)c(=O)n(C)c2cc(S(=O)(=O)NCCOc3ccccc3)ccc21,inactive: -29.3%
17,NC(=O)COC(=O)[C@@H]1CC(O)CN1S(=O)(=O)c1ccc2c(c1)OCCO2 (some centres undefined),inactive: 4.39%
18,O=C(N/N=C/c1ccco1)C(O)C(O)C(=O)N/N=C/c1ccco1 (centres undefined),inactive: -20.8%
19,COc1ccccc1NC(=O)CSc1sc2c(O)cc(=O)[nH]c2c1C#N,inactive: -6.22%
20,COCC(C)n1c(SCC(=O)NC(=O)NCc2ccccc2)nc2ccccc2c1=O (centres undefined),inactive: 8.01%
21,Cc1cc2c(cc(C(=O)OC(C)C(=O)NCc3ccc(F)cc3)n2C)o1 (centres undefined),inactive: 6.08%
22,Cc1ccc(CC(=O)NC2CCCc3ccccc32)cc1C (centres undefined),inactive: 32.4%
23,O=C(O)c1ccc(NC2=C/C(=N/S(=O)(=O)c3ccccc3)c3ccccc3C2=O)cc1,inactive: -64.6%
24,O=C(COC(=O)c1ncc(Cl)c(Cl)c1Cl)NC(=O)NCc1ccccc1,inactive: 13.3%
25,CNc1ccc(-c2cccc(C(C)=O)c2)cn1,inactive: 4.34%
26,COc1ccc(OCCNC(=O)C2(C)CCN2Cc2ccc3ccccc3c2)cc1 (centres undefined),inactive: -1.42%
27,COc1ccc(F)cc1-c1cc(C(=O)NC2CCCCC2)[nH]n1,inactive: 20.7%
28,O=S(=O)(c1cccc(-c2n[nH]c(=S)n2-c2ccccc2Cl)c1)N1CCOCC1,inactive: -7.76%
29,OCCC1CN(Cc2ccc(-n3cccn3)cc2)CCN1Cc1ccccc1 (centres undefined),inactive: 9.56%
